Results: the supplement of paper PMC8047034
Structures can show the parent of a compound that is named as a salt. The list shows a part of the results. Most values come without repeats; read them as rough.

System: Ov4Carbo
Experiment: log2 surviving fraction (library drug vs vehicle, or drug + carboplatin vs carboplatin alone; relative to plate median); ovarian cancer lines: OVCAR4 is platinum-sensitive and Ov4Carbo platinum-resistant; higher = more cell survival
Conditions: library drug concentration 10 µM; 7 days; carboplatin co-treatment 0 µM

**Q.** With `CC1CCc2cc(F)cc3c(=O)c(C(=O)O)cn1c23` (stereo unspecified) [Flumequine] as the compound, how does the log2 surviving fraction read?
**A.** 0.21

**Q.** How did the log2 surviving fraction turn out when `CCC(=O)O[C@]1(C(=O)CCl)[C@@H](C)C[C@H]2[C@@H]3CCC4=CC(=O)C=C[C@]4(C)[C@@]3(F)[C@@H](O)C[C@@]21C` [Clobetasol propionate] was run?
**A.** 0.392

**Q.** Which log2 surviving fraction does the source give for `NC(=O)CC[C@H](N)C(=O)O` [L-Glutamine] here?
**A.** -0.175

**Q.** Which log2 surviving fraction does the source give for `C[C@H](CCC(=O)O)[C@H]1CC[C@H]2[C@@H]3[C@H](O)C[C@@H]4C[C@H](O)CC[C@]4(C)[C@H]3CC[C@]12C` [Chenodeoxycholic acid] here?
**A.** 0.309

**Q.** For `O=C(O)[C@H](CC(=O)N1C[C@H]2CCCC[C@H]2C1)Cc1ccccc1` [Mitiglinide calcium], which log2 surviving fraction is on record?
**A.** 1.9

**Q.** With `C[C@]12CC[C@H](O)C[C@H]1CC[C@@H]1[C@@H]2C[C@@H](O)[C@]2(C)[C@@H](C3=CC(=O)OC3)CC[C@]12O` [Digoxigenin] as the compound, how does the log2 surviving fraction read?
**A.** -8.41

**Q.** Which log2 surviving fraction does the source give for `CCOc1nc2cccc(C(=O)O)c2n1Cc1ccc(-c2ccccc2-c2nnn[nH]2)cc1` [Candesartan (Atacand)] here?
**A.** 0.549

**Q.** With `Cc1nc2n(c(=O)c1CCN1CCC(c3noc4cc(F)ccc34)CC1)CCCC2` [Risperidone (Risperdal)] as the compound, how does the log2 surviving fraction read?
**A.** -0.134

**Q.** `CCCCC1C(=O)N(c2ccccc2)N(c2ccccc2)C1=O` [Phenylbutazone (Butazolidin, Butatron)] was tested. Which log2 surviving fraction did it give?
**A.** -0.0394

**Q.** For `O=C(O)c1ccc(NC(=O)[C@H](Cc2ccc(O)cc2)NC(=O)c2ccccc2)cc1` [Bentiromide], which log2 surviving fraction is on record?
**A.** 0.328

**Q.** With `CC(C(=O)O)c1cccc(Oc2ccccc2)c1` (stereo unspecified) [Fenoprofen calcium] as the compound, how does the log2 surviving fraction read?
**A.** 0.916

**Q.** `Oc1cc(O)c(Cl)cn1` [Gimeracil] was tested. Which log2 surviving fraction did it give?
**A.** 0.971

**Q.** Which log2 surviving fraction does the source give for `CCOC(=O)[C@H](CCc1ccccc1)N[C@@H](C)C(=O)N1CCC[C@H]1C(=O)O` [Enalapril maleate (Vasotec)] here?
**A.** 0.958

**Q.** How did the log2 surviving fraction turn out when `CN1CCN(CCCN2c3ccccc3Sc3ccc(Cl)cc32)CC1` [Prochlorperazine Dimaleate] was run?
**A.** -3.66

**Q.** With `C[N+](C)(C)C[C@H](O)CC(=O)[O-]` [L-carnitine (Levocarnitine)] as the compound, how does the log2 surviving fraction read?
**A.** 1.32

**Q.** How did the log2 surviving fraction turn out when `CCOC(=O)OC(C)OC1=C(C(=O)Nc2ccccn2)N(C)S(=O)(=O)c2ccccc21` (stereo unspecified) [Ampiroxicam] was run?
**A.** 0.213

**Q.** With `CC12CC3CC(C)(C1)CC(N)(C3)C2` [Memantine HCl (Namenda)] as the compound, how does the log2 surviving fraction read?
**A.** -1.36

**Q.** `CCN(CC)CCOC(=O)C(c1ccccc1)c1ccccc1` [Adiphenine HCl] was tested. Which log2 surviving fraction did it give?
**A.** 0.0252

**Q.** How did the log2 surviving fraction turn out when `CCOC(CN1CCN(CC(C)C(=O)c2ccccc2)CC1)c1ccccc1` (stereo unspecified) [Eprazinone 2HCl] was run?
**A.** 0.189

**Q.** With `O.O.O.O.O=C([O-])CC(O)(CC(=O)[O-])C(=O)[O-].[Li+].[Li+].[Li+]` [Lithium Citrate] as the compound, how does the log2 surviving fraction read?
**A.** -0.0522

**Q.** `O=[N+]([O-])c1ccc([As](=O)(O)O)cc1` [Nitarsone] was tested. Which log2 surviving fraction did it give?
**A.** -0.255

**Q.** Which log2 surviving fraction does the source give for `CC1=C(CC(=O)O)c2cc(F)ccc2/C1=C\c1ccc([S+](C)[O-])cc1` (stereo unspecified) [Sulindac (Clinoril)] here?
**A.** 0.471

Same assay, conditions: library drug concentration 10 µM; 7 days; carboplatin co-treatment 5 µM

**Q.** Which log2 surviving fraction does the source give for `O=S(=O)(O)Oc1ccc(C(c2ccc(OS(=O)(=O)O)cc2)c2ccccn2)cc1` [Sodium Picosulfate] here?
**A.** 0.478

**Q.** How did the log2 surviving fraction turn out when `C[C@]12CC[C@@H]3c4ccc(O)cc4CC[C@H]3[C@@H]1CC[C@@H]2O` [Estradiol] was run?
**A.** -0.233

**Q.** For `CC(=O)[C@@]1(O)CC[C@H]2[C@@H]3CCC4=CC(=O)CCC4=C3[C@@H](c3ccc(N(C)C)cc3)C[C@@]21C` [Ulipristal], which log2 surviving fraction is on record?
**A.** 0.227

**Q.** How did the log2 surviving fraction turn out when `O=C(NCCO[N+](=O)[O-])c1cccnc1` [Nicorandil (Ikorel)] was run?
**A.** 1.02

**Q.** `O=C(Nc1ccc([N+](=O)[O-])cc1Cl)c1cc(Cl)ccc1O` [Niclosamide (Niclocide)] was tested. Which log2 surviving fraction did it give?
**A.** -7.24

**Q.** How did the log2 surviving fraction turn out when `CC(C)/N=c1\cc2n(-c3ccc(Cl)cc3)c3ccccc3nc-2cc1Nc1ccc(Cl)cc1` [Clofazimine] was run?
**A.** -0.714

**Q.** For `CC(C)c1nc(CN(C)C(=O)N[C@@H](CCN2CCOCC2)C(=O)N[C@H](CC[C@H](Cc2ccccc2)NC(=O)OCc2cncs2)Cc2ccccc2)cs1` [Cobicistat (GS-9350)], which log2 surviving fraction is on record?
**A.** -2.16

**Q.** `Clc1ccc(COC(Cn2ccnc2)c2ccc(Cl)cc2Cl)c(Cl)c1` (stereo unspecified) [Miconazole nitrate] was tested. Which log2 surviving fraction did it give?
**A.** -1.05

**Q.** Which log2 surviving fraction does the source give for `COC(=O)CCc1ccc(OCC(O)CNC(C)C)cc1` (stereo unspecified) [Esmolol HCl] here?
**A.** 0.0664

**Q.** How did the log2 surviving fraction turn out when `CCOC(=O)c1cncn1[C@H](C)c1ccccc1` [Etomidate] was run?
**A.** -0.55

**Q.** With `CC[C@H](C)C(=O)O[C@H]1C[C@@H](C)C=C2C=C[C@H](C)[C@H](CC[C@@H]3C[C@@H](O)CC(=O)O3)[C@H]21` [Lovastatin (Mevacor)] as the compound, how does the log2 surviving fraction read?
**A.** -2.07

**Q.** For `N#CC1(c2ccc(NC(=O)c3cccnc3NCc3ccncc3)cc2)CCCC1` [Apatinib (YN968D1)], which log2 surviving fraction is on record?
**A.** -0.716

**Q.** With `Cc1cc(-n2c(=O)[nH]c(=O)n(C)c2=O)ccc1Oc1ccc(SC(F)(F)F)cc1` [toltrazuril] as the compound, how does the log2 surviving fraction read?
**A.** 1.48

**Q.** For `Nc1ccc(S(=O)(=O)Nc2ccccn2)cc1` [Sulfapyridine (Dagenan)], which log2 surviving fraction is on record?
**A.** -0.171

**Q.** How did the log2 surviving fraction turn out when `CNCCCC12CCC(c3ccccc31)c1ccccc12` [Maprotiline hydrochloride] was run?
**A.** -1.3

**Q.** For `CCCc1cc(C(N)=S)ccn1` [Protionamide (Prothionamide)], which log2 surviving fraction is on record?
**A.** 0.169

**Q.** With `CC(C)c1nc(N(C)S(C)(=O)=O)nc(-c2ccc(F)cc2)c1/C=C/[C@@H](O)C[C@@H](O)CC(=O)O` [Rosuvastatin calcium (Crestor)] as the compound, how does the log2 surviving fraction read?
**A.** -0.481

**Q.** How did the log2 surviving fraction turn out when `CC1CCc2cc(F)cc3c(=O)c(C(=O)O)cn1c23` (stereo unspecified) [Flumequine] was run?
**A.** 0.782

**Q.** Which log2 surviving fraction does the source give for `CCC(=O)O[C@]1(C(=O)CCl)[C@@H](C)C[C@H]2[C@@H]3CCC4=CC(=O)C=C[C@]4(C)[C@@]3(F)[C@@H](O)C[C@@]21C` [Clobetasol propionate] here?
**A.** -1.37

**Q.** For `NC(=O)CC[C@H](N)C(=O)O` [L-Glutamine], which log2 surviving fraction is on record?
**A.** 0.174

**Q.** Which log2 surviving fraction does the source give for `C[C@H](CCC(=O)O)[C@H]1CC[C@H]2[C@@H]3[C@H](O)C[C@@H]4C[C@H](O)CC[C@]4(C)[C@H]3CC[C@]12C` [Chenodeoxycholic acid] here?
**A.** -0.17

**Q.** With `O=C(O)[C@H](CC(=O)N1C[C@H]2CCCC[C@H]2C1)Cc1ccccc1` [Mitiglinide calcium] as the compound, how does the log2 surviving fraction read?
**A.** 1.39

**Q.** Which log2 surviving fraction does the source give for `C[C@]12CC[C@H](O)C[C@H]1CC[C@@H]1[C@@H]2C[C@@H](O)[C@]2(C)[C@@H](C3=CC(=O)OC3)CC[C@]12O` [Digoxigenin] here?
**A.** -7.73

**Q.** Which log2 surviving fraction does the source give for `CCOc1nc2cccc(C(=O)O)c2n1Cc1ccc(-c2ccccc2-c2nnn[nH]2)cc1` [Candesartan (Atacand)] here?
**A.** 0.35

**Q.** How did the log2 surviving fraction turn out when `Cc1nc2n(c(=O)c1CCN1CCC(c3noc4cc(F)ccc34)CC1)CCCC2` [Risperidone (Risperdal)] was run?
**A.** -0.0218

**Q.** Which log2 surviving fraction does the source give for `CCCCC1C(=O)N(c2ccccc2)N(c2ccccc2)C1=O` [Phenylbutazone (Butazolidin, Butatron)] here?
**A.** 0.44

**Q.** How did the log2 surviving fraction turn out when `O=C(O)c1ccc(NC(=O)[C@H](Cc2ccc(O)cc2)NC(=O)c2ccccc2)cc1` [Bentiromide] was run?
**A.** 1.38

**Q.** With `CC(C(=O)O)c1cccc(Oc2ccccc2)c1` (stereo unspecified) [Fenoprofen calcium] as the compound, how does the log2 surviving fraction read?
**A.** -1.19

**Q.** How did the log2 surviving fraction turn out when `Oc1cc(O)c(Cl)cn1` [Gimeracil] was run?
**A.** 1.17

**Q.** `CCOC(=O)[C@H](CCc1ccccc1)N[C@@H](C)C(=O)N1CCC[C@H]1C(=O)O` [Enalapril maleate (Vasotec)] was tested. Which log2 surviving fraction did it give?
**A.** 0.608

**Q.** Which log2 surviving fraction does the source give for `CN1CCN(CCCN2c3ccccc3Sc3ccc(Cl)cc32)CC1` [Prochlorperazine Dimaleate] here?
**A.** -2.99

**Q.** How did the log2 surviving fraction turn out when `C[N+](C)(C)C[C@H](O)CC(=O)[O-]` [L-carnitine (Levocarnitine)] was run?
**A.** 0.428

**Q.** For `CCOC(=O)OC(C)OC1=C(C(=O)Nc2ccccn2)N(C)S(=O)(=O)c2ccccc21` (stereo unspecified) [Ampiroxicam], which log2 surviving fraction is on record?
**A.** 0.978

**Q.** With `CC12CC3CC(C)(C1)CC(N)(C3)C2` [Memantine HCl (Namenda)] as the compound, how does the log2 surviving fraction read?
**A.** -0.914

**Q.** Which log2 surviving fraction does the source give for `CCN(CC)CCOC(=O)C(c1ccccc1)c1ccccc1` [Adiphenine HCl] here?
**A.** -0.0631

**Q.** With `CCOC(CN1CCN(CC(C)C(=O)c2ccccc2)CC1)c1ccccc1` (stereo unspecified) [Eprazinone 2HCl] as the compound, how does the log2 surviving fraction read?
**A.** 0.439

**Q.** Which log2 surviving fraction does the source give for `O.O.O.O.O=C([O-])CC(O)(CC(=O)[O-])C(=O)[O-].[Li+].[Li+].[Li+]` [Lithium Citrate] here?
**A.** 1.2

**Q.** Which log2 surviving fraction does the source give for `O=[N+]([O-])c1ccc([As](=O)(O)O)cc1` [Nitarsone] here?
**A.** -2.77

**Q.** With `CC1=C(CC(=O)O)c2cc(F)ccc2/C1=C\c1ccc([S+](C)[O-])cc1` (stereo unspecified) [Sulindac (Clinoril)] as the compound, how does the log2 surviving fraction read?
**A.** -1.26
